Laboratory results taken from paper PMC4336329 (PLoS ONE, 2015).
Hit rate of the full screen: of about 310,000 compounds, about 2,200 (0.71%) showed an effect of 50% or more. Effects have a minus sign here. Some of the results follow.

target: human ether-à-go-go-related gene (hERG) potassium channel (human, UniProt Q12809); test: primary screen, population patch clamp on CHO cells stably expressing hERG
Sequence (Q12809 whole entry, looked up): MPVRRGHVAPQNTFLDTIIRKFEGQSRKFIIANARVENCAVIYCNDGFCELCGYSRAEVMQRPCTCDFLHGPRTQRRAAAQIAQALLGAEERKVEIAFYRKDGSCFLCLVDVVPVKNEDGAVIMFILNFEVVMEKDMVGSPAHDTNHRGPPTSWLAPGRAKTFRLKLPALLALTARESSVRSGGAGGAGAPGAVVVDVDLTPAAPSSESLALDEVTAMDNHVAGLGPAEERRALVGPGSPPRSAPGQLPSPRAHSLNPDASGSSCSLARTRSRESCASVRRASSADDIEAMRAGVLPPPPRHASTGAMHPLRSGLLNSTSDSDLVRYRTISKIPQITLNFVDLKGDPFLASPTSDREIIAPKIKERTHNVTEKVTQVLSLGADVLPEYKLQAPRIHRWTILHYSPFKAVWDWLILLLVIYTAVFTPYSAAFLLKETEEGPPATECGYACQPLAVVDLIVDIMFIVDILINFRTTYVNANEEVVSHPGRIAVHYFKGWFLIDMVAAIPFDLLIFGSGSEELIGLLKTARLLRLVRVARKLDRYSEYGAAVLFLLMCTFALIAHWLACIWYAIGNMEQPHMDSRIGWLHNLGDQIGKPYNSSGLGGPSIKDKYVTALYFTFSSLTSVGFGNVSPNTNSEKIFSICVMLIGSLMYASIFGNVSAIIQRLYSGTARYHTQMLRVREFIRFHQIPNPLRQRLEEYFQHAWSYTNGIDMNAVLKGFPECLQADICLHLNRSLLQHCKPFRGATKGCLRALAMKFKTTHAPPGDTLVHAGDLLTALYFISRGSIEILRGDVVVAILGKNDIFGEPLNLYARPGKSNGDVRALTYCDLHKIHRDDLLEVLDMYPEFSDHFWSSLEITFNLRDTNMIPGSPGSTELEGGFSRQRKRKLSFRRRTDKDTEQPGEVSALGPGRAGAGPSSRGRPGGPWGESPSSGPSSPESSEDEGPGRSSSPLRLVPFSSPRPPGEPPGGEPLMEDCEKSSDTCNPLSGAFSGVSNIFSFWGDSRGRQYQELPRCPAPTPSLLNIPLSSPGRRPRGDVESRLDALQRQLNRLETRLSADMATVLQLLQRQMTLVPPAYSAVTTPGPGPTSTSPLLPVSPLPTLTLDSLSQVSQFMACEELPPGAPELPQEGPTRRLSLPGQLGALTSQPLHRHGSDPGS

| SMILES | hERG current change (%, negative = inhibition) at 1uM [%] |
| --- | --- |
| O=C(COC(=O)c1ccccc1SCC(=O)N1CCCC1)Nc1ccccc1 | 0.421 |
| CC(C)c1cc(C(=O)N/N=C/c2ccoc2)cs1 | 8.41 |
| O=C(O)C1CCC(CN(Cc2cccc(Br)c2)C(=S)Nc2ccccc2F)CC1 (stereo not drawn) | 5.23 |
| O=C(Cn1[nH]c(=O)c2ccccc2c1=O)NNC(=O)c1ccccc1 | 11.6 |
| CCN1C(=O)/C(=C/c2nc3ccccc3c(=O)n2-c2ccccc2)c2ccccc21 | 10.7 |
| O=C(CCCN1C(=O)/C(=C\c2cccs2)SC1=S)Nc1ccccn1 | 17.7 |
| CC(=O)CSc1ncnc2nc[nH]c12 | 13.8 |
| CCOc1ccc(S(=O)(=O)NCCc2cn3ccccc3n2)cc1 | 10.8 |
| CC(C)C1COS(=O)(=O)NC1CC(=O)SC(C)(C)C (stereo not drawn) | 11.3 |
| C/C(=N\NC(=O)c1cccc(S(=O)(=O)N2CCCC2)c1)c1ccc(C)cc1 | -7.15 |
| CC1CCN(S(=O)(=O)c2ccc(C(=O)N3CCN(c4ccccc4F)CC3)cc2)CC1 | 9.06 |
| Cc1nnc(SCc2ccccc2)n1N | 11.6 |
| CN(C)/C=N/c1sc2c(c1C#N)CCCCC2 | 3.22 |
| C=CCn1c(SCC(N)=O)nc(C)cc1=O | 11.7 |
| Cc1cc(C(F)(F)F)c(C#N)c(SCC(=O)Nc2nc3ccccc3s2)n1 | -2.86 |
| COc1ccc(-c2cc(-c3ccccc3)nc(Cl)n2)cc1OC | 13 |
| CC(C)c1cc(=O)n2[nH]c(N)nc2n1 | 11.8 |
| O=C(O)c1cc(S(=O)(=O)Nc2cccc(Oc3ccccc3)c2)ccc1Br | 15 |
| COc1ccc(-c2csc(NC(=O)C3CCN(C(=O)c4ccc(F)cc4)CC3)n2)cc1OC | 1.61 |
| Cc1c(C(=O)N2CCN(Cc3cccs3)CC2)oc2ccccc12 | 1.77 |
| Nc1c(C(=O)NCc2cccnc2)sc(=S)n1-c1ccccc1 | 10.9 |
| COc1ccc(CC(=O)O/N=C(\N)Cc2cccc3ccccc23)cc1 | 16 |
| Cc1cccc(-c2noc(CN(C)C(=O)c3ccoc3C)n2)c1 | 13.8 |

| SMILES | hERG current change (%, negative = inhibition) at 1uM [%] |
| --- | --- |
| CS(=O)(=O)N(CC(=O)N1CCN(Cc2ccccc2)CC1)c1ccccc1F | 0.156 |
| c1ccc(-c2noc(-c3ccc4c(c3)OCO4)n2)cc1 | -4.97 |
| Cc1ccc(S(=O)(=O)N2CCN(C(=O)COC(=O)c3ccc(C(C)(C)C)cc3)CC2)c(C)c1 | 7.73 |
| CC(=O)N1N=C(c2cccc([N+](=O)[O-])c2)OC1(C)CC(=O)Nc1ccccc1 (stereo not drawn) | 5.24 |
| CCOCC(=O)Nc1nc2ccc(OC)cc2s1 | 3.59 |
| FC(F)(F)c1cc(NC2CCCCC2)ccn1 | 16.6 |
| CC(C)(C)C(=O)Nc1ccccc1C(=O)Nc1cccnc1 | 6.51 |
| NC(=O)c1c(/N=C/c2cccs2)sc2c1CCCC2 | 10.9 |
| Cc1ccc(NS(=O)(=O)c2ccccc2)c2c1CC(C)(C)O2 | 4.5 |
| O=C(O)CCN1CC2([N+](=O)[O-])CC=C(OCCO)C([N+](=O)[O-])(C1)C2 (stereo not drawn) | 15.2 |
| CCOC(=O)/C=C1\SCC(=O)N1CC(=O)N1CCOCC1 | 16.4 |
| CCC(C)NC(=O)COc1ccccc1[N+](=O)[O-] (stereo not drawn) | 11.6 |
| CC(C)(C)c1cc(C(=O)NCc2ccccc2)ccn1 | 12.9 |
| CCOc1ccc(CCNC(=O)c2cccc(S(=O)(=O)N3CC(C)OC(C)C3)c2)cc1OCC (stereo not drawn) | 2.46 |
| COC(=O)C1=C(c2cc3ccccc3s2)C[C@@H]2CC[C@H]1N2C(=O)N1CCOCC1 | -3.23 |
| O=C(Nc1ccc2c(c1)OCCO2)c1cnc2ccccn2c1=O | 8.81 |
| O=C(O)c1ccccc1C(=O)NCc1ccc2c(c1)OCO2 | 3.77 |
| COc1ccc(N2CC(C(=O)O)CC2=O)cc1 (stereo not drawn) | 18.9 |
| CCN(CC)S(=O)(=O)c1cccc(NC(=O)c2cc(=O)[nH]c3ccccc23)c1 | -4.29 |
| CCCn1c(=O)[nH]c(=O)c2c1nc(-c1ccc(OC(F)F)c(OC)c1)n2CCOC | 2.4 |
| CC(N=C1CC(C)(C)CC(=O)/C1=C(/O)CCCN1C(=O)c2ccccc2C1=O)C(=O)O (stereo not drawn) | 11.1 |
| NC(=O)C1CCN(c2nc(-c3ccccc3)nc3ccccc23)CC1 | -23.4 |
| CCn1c(SCc2nc3cc(OC)c(OC)cc3c(=O)[nH]2)nc2ccccc21 | 9.52 |

| SMILES | hERG current change (%, negative = inhibition) at 1uM [%] |
| --- | --- |
| O=S(=O)(NCCSc1nnnn1-c1ccccc1)c1cccs1 | 11.5 |
| COc1nc(OC)nc(N2CCC(C(=O)Nc3cccc4c3CCCC4)CC2)n1 | 5.93 |
| CC1CCc2c(sc(NC(=O)c3ccc(-c4ccccc4[N+](=O)[O-])o3)c2C#N)C1 (stereo not drawn) | 17.2 |
| Cc1ccccc1OCC(=O)Nc1ccc(C)c(S(=O)(=O)N2CCCCCC2)c1 | 7.47 |
| CCn1c(SCC(=O)Nc2cccc(NC(C)=O)c2)nc2c([nH]c3ccccc32)c1=O | 8.06 |
| CN1CCN(c2ccc(NC(=O)c3ccc4c(c3)[nH]c(=O)n4Cc3ccc(F)cc3)cc2)CC1 | 4.34 |
| Cc1ccsc1C(=O)N1CCN(c2ncccn2)CC1 | 9.08 |
| Cc1ccc(CN2CCN(Cc3cn(C)nc3C)CC2CCO)o1 (stereo not drawn) | 15.5 |
| CN(C(=O)c1cnccn1)c1c(N)n(Cc2ccccc2)c(=O)[nH]c1=O | 8.11 |
| CCOC(=O)C1=C(CSc2nc(C)ccc2C#N)OC(N)=C(C#N)C1c1cccc(OC)c1OC (stereo not drawn) | 9.38 |
| CCCCCNC(=O)Cc1ccc(OC)cc1 | 6.88 |
| CNC(=O)COC(=O)c1cccnc1SC | 7.05 |
| CO/N=C(\C)C(Cc1ccc(Cl)nc1)Cc1ccc(Cl)nc1 | 2.23 |
| CCCC(=O)Nc1ccc(C=C(C(C)=O)C(C)=O)cc1 | 4.62 |
| C=CCOc1cccc(C(=O)NC(c2ccccc2)C(C)C)c1 (stereo not drawn) | 3.19 |
| CCCOc1ccc(-c2c(C(=O)N/N=C/c3ccc(C)cc3)nnn2-c2nonc2N)cc1 | 9.46 |
| Nc1nc(SCC(=O)NCc2ccc3c(c2)OCO3)n[nH]1 | 9.8 |
| Cc1ccc(S(=O)(=O)N2CCC(=O)N(CCO)CC2)cc1 | 10.1 |
| O=[N+]([O-])c1cc(S(=O)(=O)N2CCCC2)ccc1N/N=C1/CCCc2ccccc21 | 13.3 |
| CC1=NN(c2ccccc2)C(=O)/C1=C/c1cccc(C)c1 | 0.505 |
| Cc1cc(C)n2nc(C(=O)OCC(=O)NCc3ccccc3)nc2n1 | 28.4 |
| Cc1ccc(CN2CCSc3ccc(C(=O)NCc4ccco4)cc32)cc1 | 1.69 |
| COc1ccccc1NS(=O)(=O)c1cccc(C(=O)N/N=C/c2c(CO)cnc(C)c2O)c1 | 12.2 |

| SMILES | hERG current change (%, negative = inhibition) at 1uM [%] |
| --- | --- |
| COc1ccc(Nc2ccccc2)c(C)c1 | 7.05 |
| C=CCNC(=O)COC(=O)COc1ccc(Cl)cc1C | 0.409 |
| O=C(CSc1nc2cc3c(cc2c(=O)n1CCC1=CCCCC1)OCO3)NCc1ccco1 | 15.4 |
| O=C(CCCOc1ccccc1)N1CCN(S(=O)(=O)c2cccs2)CC1 | 3.59 |
| COc1ccccc1C(OC(=O)c1ccco1)C(=O)NCc1ccc(F)cc1 (stereo not drawn) | 9.13 |
| C/C(CC(=O)Nc1cccc(Cl)c1C)=N\NC(=O)C(=O)NCC(C)C | -0.612 |
| COc1ccc(CCc2nc(C)ccc2O)cc1.Cl | 11.4 |
| c1ccc2c(c1)nc(NCc1ccc3c(c1)OCO3)n2CCN1CCOCC1 | -40.7 |
| O=C(NCc1cccs1)C1CCC(CNS(=O)(=O)c2cccc3nsnc23)CC1 (stereo not drawn) | 4.69 |
| O=C(CNC(=O)Cc1ccccc1)NCC(=O)OCc1ccc(C(=O)c2ccccc2)cc1 | 0.84 |
| CCN(CC)CCN1C(=O)c2oc3ccccc3c(=O)c2C1c1ccc(C)cc1 (stereo not drawn) | -6.49 |
| CN1CCN(S(=O)(=O)c2cccc(C(=O)NCCOc3ccccc3F)c2)CC1 | -4.66 |
| COc1ccccc1CN1CC(C(=O)N2CCC(OC)CC2)CCC1=O (stereo not drawn) | 13.7 |
| Cc1ccc(OC(C)C(=O)N2CCc3ccccc32)cc1 (stereo not drawn) | 14.4 |
| CCc1cc(C(=O)N2CCCC(CNC(=O)c3ccc(-c4ccccc4)cc3)C2)no1 (stereo not drawn) | -15.5 |
| Cn1cc(P(=S)(N2CCOCC2)N2CCOCC2)cc1P(=S)(N1CCOCC1)N1CCOCC1 | 17.8 |
| CC(=O)Cc1cc2cc([N+](=O)[O-])ccc2oc1=O | 10.9 |
| CNC(=S)N(CCc1c(C)[nH]c2ccc(Cl)cc12)Cc1cccs1 | -7.85 |
| CCCSc1nnc(NC(=O)c2ccco2)s1 | 8.4 |
| CCN(c1cc(C)cc(C)c1)S(=O)(=O)c1nnc(NC(=O)C(C)C)s1 | 11.4 |
| CCOCc1nnc(NC(=O)c2ccc(NC(C)=O)cc2)s1 | 15.1 |
